This note sets out measurements from PMC4336329 (PLoS ONE, 2015).

The whole screen tested about 310,000 compounds, of which about 14,000 (4.5%) showed an effect of 50% or more. The effect is printed as a negative number. Some of the results follow.
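Further: peak tail current of the secondary pulse compared with the same well before compound.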

The experiment deals with human ether-à-go-go-related gene (hERG) potassium channel (human, UniProt Q12809). Kind of experiment: primary screen, population patch clamp on CHO cells stably expressing hERG.
Sequence of human ether-à-go-go-related gene (hERG) potassium channel (Q12809 whole entry, looked up): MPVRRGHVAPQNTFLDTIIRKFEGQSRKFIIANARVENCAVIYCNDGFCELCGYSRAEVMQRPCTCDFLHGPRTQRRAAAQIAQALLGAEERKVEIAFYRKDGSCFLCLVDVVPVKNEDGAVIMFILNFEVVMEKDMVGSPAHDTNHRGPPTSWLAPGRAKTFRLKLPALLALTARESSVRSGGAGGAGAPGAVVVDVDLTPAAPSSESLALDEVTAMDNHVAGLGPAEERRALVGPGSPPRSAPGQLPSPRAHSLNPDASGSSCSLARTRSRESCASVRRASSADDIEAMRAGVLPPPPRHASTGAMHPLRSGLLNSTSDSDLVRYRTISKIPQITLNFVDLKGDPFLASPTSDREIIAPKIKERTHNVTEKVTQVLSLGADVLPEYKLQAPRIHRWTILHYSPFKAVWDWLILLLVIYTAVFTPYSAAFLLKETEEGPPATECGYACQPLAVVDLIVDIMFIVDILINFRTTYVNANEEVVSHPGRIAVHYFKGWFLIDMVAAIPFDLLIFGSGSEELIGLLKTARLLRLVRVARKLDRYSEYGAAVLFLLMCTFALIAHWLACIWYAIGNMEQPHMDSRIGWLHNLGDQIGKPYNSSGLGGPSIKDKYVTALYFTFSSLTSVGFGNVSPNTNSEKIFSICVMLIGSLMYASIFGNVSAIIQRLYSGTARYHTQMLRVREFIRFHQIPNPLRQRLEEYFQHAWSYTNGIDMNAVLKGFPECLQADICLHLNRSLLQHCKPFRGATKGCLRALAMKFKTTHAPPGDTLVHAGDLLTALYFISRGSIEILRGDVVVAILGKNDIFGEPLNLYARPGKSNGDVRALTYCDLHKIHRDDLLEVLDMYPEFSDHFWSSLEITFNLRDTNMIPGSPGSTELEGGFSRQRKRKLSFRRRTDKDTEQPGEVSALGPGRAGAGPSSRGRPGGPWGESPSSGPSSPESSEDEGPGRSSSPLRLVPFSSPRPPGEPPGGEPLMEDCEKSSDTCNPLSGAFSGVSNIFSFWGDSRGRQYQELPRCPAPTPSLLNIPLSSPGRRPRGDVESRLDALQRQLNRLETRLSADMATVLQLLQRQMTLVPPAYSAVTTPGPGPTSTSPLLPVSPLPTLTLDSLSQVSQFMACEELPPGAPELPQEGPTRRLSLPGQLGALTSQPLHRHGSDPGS
For `COc1ccc(NC(=O)CC(C)C)c(OC)c1`, the “hERG current change (%, negative = inhibition) at 10uM” value is 18.3%.
The figure for `CCOP(=O)(OCC)c1ccc2c(c1)C(=O)c1ccccc1CC2` is -0.224%; for `COC(=O)c1ccccc1NC(=O)CSc1nc(-c2ccco2)cc(C(F)(F)F)n1` it is -0.792%.
The figure for `CCc1cc(C(=O)NNC(=S)NC2CCCCC2)cs1` is 8%.
Consider `CCn1ccnc1CN1CCc2c([nH]c3ccccc23)C1CC(C)C` (centres unmarked), for which the “hERG current change (%, negative = inhibition) at 10uM” value is recorded as -67.9%.
Regarding `O=C(CSc1cn(Cc2ccccc2)c2ccccc12)N1CCOCC1`, the “hERG current change (%, negative = inhibition) at 10uM” value is on record as -25.1%.
The figure for `O=C(NC(Cc1ccccc1)C(=O)NC1CC1)OCc1ccccc1` (centres unmarked) is 44.8%; for `COC(=O)c1sccc1-c1ccc(/C=N/OC(=O)c2cccs2)o1` it is 3.49%; for `Cc1ccc(S(=O)(=O)NC(C)C(=O)NC2CCCCCC2)cc1` (centres unmarked) it is -5.24%.
`CN(C)/N=C/c1cc([N+](=O)[O-])ccc1O`: the “hERG current change (%, negative = inhibition) at 10uM” value is recorded as 6.18%.
In the case of `COc1ccc(NC(=O)c2cc(OC)c(OC)c(OC)c2)cc1S(=O)(=O)N1CCCCC1`, the “hERG current change (%, negative = inhibition) at 10uM” value was 15.5%.
With `COc1cccc(NC(=S)N(CCCN2CCOCC2)Cc2cn(C)c3ccccc23)c1`, the “hERG current change (%, negative = inhibition) at 10uM” value was -10.7%.
With `O=C(NCCOc1ccccc1)c1ccccc1`, the “hERG current change (%, negative = inhibition) at 10uM” value came out at 12%.
`COc1ccc(N=Cc2c(O)n(C)c(=O)n(C)c2=O)cc1`: the “hERG current change (%, negative = inhibition) at 10uM” value turned out to be 7.92%.
In the case of `CCOC(=O)c1cnc2c(C)cc(Cl)cc2c1NCCCN1CCOCC1`, the “hERG current change (%, negative = inhibition) at 10uM” value is reported as 1.44%.
Take `CS(=O)(=O)N1CCCC(C(=O)NCc2ccco2)C1` (centres unmarked): the “hERG current change (%, negative = inhibition) at 10uM” value was determined as 8.57%.
The figure for `COc1cc(C(=O)OCC(=O)c2cc(C)n(C)c2C)cc(NC(=O)c2ccco2)c1OC` is 7.53%; for `O=C(Nc1ccc2c(c1)OCCO2)c1c(F)c(F)c(F)c(F)c1F` it is -2.03%; for `CO/N=C/NC(=O)c1c(OC)ccnc1Oc1cccc(C(F)(F)F)c1` it is -14.1%.
As to `COc1cccc(/C=N/Nc2ncnc3scc(-c4ccccc4)c23)c1O`, the “hERG current change (%, negative = inhibition) at 10uM” value is given as -4.18%.
Regarding `COc1ccc(N2Cc3ccc(OC)c(OC)c3C2=O)cc1`, the “hERG current change (%, negative = inhibition) at 10uM” value is 15.1%.
On to `O=C(NCc1nnc2n1CCCCC2)c1ccc(Cl)cc1Cl`, for which the “hERG current change (%, negative = inhibition) at 10uM” value is 0.142%.
Regarding `COc1ccc(-c2csc(NC(=O)COC(=O)Cc3ccc(Cl)cc3Cl)n2)cc1`, the “hERG current change (%, negative = inhibition) at 10uM” value was -5.5%.
The figure for `COc1ccc2[nH]c(=O)c(NC(N)=S)nc2c1` is 7.2%; for `Cc1cc(C)c2[nH]c(O)c(N=NC3=NC(=O)CS3)c2c1` it is -19.6%; for `COCCN(C(=O)COC(=O)c1cccnc1SC)c1c(N)n(Cc2ccccc2)c(=O)[nH]c1=O` it is -2%.
The figure for `O=C(O)CCCCCNC(=O)OCC1c2ccccc2-c2ccccc21` is 7.34%.
With `CCN1/C(=C/c2ccc3cc(C)ccc3[n+]2CC)Sc2ccc3sccc3c21.[I-]`, the “hERG current change (%, negative = inhibition) at 10uM” value was -44.5%.
As for `COc1ccc(/C=N/Nc2cc(C)nc3ccc(OC)cc23)c(OC)c1`, the “hERG current change (%, negative = inhibition) at 10uM” value was -50.1%.
As to `COc1ccc(CNCC(O)(c2ccc(Cl)cc2)c2ccc(Cl)cc2)cc1`, the “hERG current change (%, negative = inhibition) at 10uM” value was -12%.
For `CCN(CC)S(=O)(=O)c1ccc2[nH]cc(C(=O)NC3CC3)c(=O)c2c1`, the “hERG current change (%, negative = inhibition) at 10uM” value came out at 11.3%.
For the molecule `C=CCOc1ccccc1CNCCc1ccc(S(N)(=O)=O)cc1.Cl`, the “hERG current change (%, negative = inhibition) at 10uM” value was -37.2%.
Turning to `CN(C)S(=O)(=O)N(CC(=O)NCCSCc1ccc(Cl)cc1)c1ccccc1`, the “hERG current change (%, negative = inhibition) at 10uM” value is recorded as -31.6%.
As to `COC(=O)C1C2c3ccccc3OC1(C)N=c1s/c(=C/c3cnn(C)c3C)c(=O)n12` (centres unmarked), the “hERG current change (%, negative = inhibition) at 10uM” value is listed as -3.36%.
Turning to `CS(=O)(=O)c1nc(-c2ccc(Br)cc2)cc(-c2ccccc2)c1C#N`, the “hERG current change (%, negative = inhibition) at 10uM” value is 20.9%.
The figure for `OCCCNC(=S)Nc1ccc(Br)cc1Cl` is 19.1%; for `CCCN(C(=O)CN1C(=O)NC2(CCCCCC2)C1=O)C1CCS(=O)(=O)C1` (centres unmarked) it is 50.9%; for `O=C(CN1C(=O)c2ccccc2S1(=O)=O)NCc1ccco1` it is 14.1%.
With `CNC(=O)/C(C#N)=C/c1ccc(-c2ccccc2[N+](=O)[O-])o1`, the “hERG current change (%, negative = inhibition) at 10uM” value was found to be 8.72%.
As to `CCCOC(=O)c1ccc(Nc2cc(C)nc3ncnn23)cc1`, the “hERG current change (%, negative = inhibition) at 10uM” value is recorded as -35.4%.
For `O=C(NCc1cccc(Cl)c1)c1ccc2nc(N3CCOCC3)sc2c1`, the “hERG current change (%, negative = inhibition) at 10uM” value is -44.7%.
With `Cc1ccccc1NC(=O)CSc1nc2ccccc2c2nc(CCn3cncc3C)nn12`, the “hERG current change (%, negative = inhibition) at 10uM” value is -55.6%.
Regarding `Cc1ccc(S(=O)(=O)CCC(=O)NC2CCCCC2)cc1`, the “hERG current change (%, negative = inhibition) at 10uM” value is -0.557%.
The figure for `O=C(CSc1nnc(-c2ccc(Cl)cc2)n1Cc1ccco1)c1cccs1` is -16.4%; for `CN(C(=O)c1ccccc1Cl)C1CCCCC1` it is -1.55%; for `Cn1c(-c2ccccc2)cnc1N` it is 7.85%.
Consider `CN1CCc2c(sc(/N=C/c3cc(C(C)(C)C)ccc3O)c2C#N)C1`, for which the “hERG current change (%, negative = inhibition) at 10uM” value is recorded as 5.6%.
The figure for `COc1ccc(NC(=O)CN2C(=O)S/C(=C/c3cccn3-c3ccc(C(=O)O)cc3)C2=O)cc1` is 17%.
As to `CCc1c(C(=O)Nc2ccc(OC)cc2)[nH]c(C)c1C(C)=O`, the “hERG current change (%, negative = inhibition) at 10uM” value is -12.8%.
Turning to `COC1CCCN(C(=O)c2cccc(OC3CCN(S(C)(=O)=O)CC3)c2)C1` (centres unmarked), the “hERG current change (%, negative = inhibition) at 10uM” value turned out to be 15.1%.
On to `CC[C@H](CO)Nc1nc(Nc2cccc(Cl)c2)c2ncn(C(C)C)c2n1`, for which the “hERG current change (%, negative = inhibition) at 10uM” value was -10.7%.
The figure for `COc1ccccc1N(CC(O)CN1CCOCC1)S(=O)(=O)c1ccccc1` (centres unmarked) is 12.7%; for `COc1ccccc1/C=C1\SC(=O)N(CCC(=O)NCCCn2ccnc2)C1=O` it is -24.5%.
`COc1ccc(C(=O)NCCn2cc(SCC(=O)NCc3ccco3)c3ccccc32)cc1`: the “hERG current change (%, negative = inhibition) at 10uM” value is reported as -4.63%.
For `CCOc1ccc(C(=O)Nc2ccc(S(=O)(=O)N3CCN(C)CC3)cc2)cc1`, the “hERG current change (%, negative = inhibition) at 10uM” value was found to be 1.39%.
For `Cc1cc(C)cc(OCC(=O)N2CCCCCC2)c1`, the “hERG current change (%, negative = inhibition) at 10uM” value is recorded as -2.23%.
As for `C#CCNC(=O)C1=C[C@@H](c2ccc(C#C)cc2)[C@H](CCCO)[C@@H](OCC)O1`, the “hERG current change (%, negative = inhibition) at 10uM” value is listed as -21.4%.
Turning to `COc1cc(OC)c(C2=NOC(C(=O)NCCc3ccccc3)C2)cc1Cl` (centres unmarked), the “hERG current change (%, negative = inhibition) at 10uM” value was -13.1%.
Turning to `Cc1ccc(C2C3=C(CC(C)(C)CC3=O)N(CCN3CCOCC3)C3=C2C(=O)CC(C)(C)C3)cc1`, the “hERG current change (%, negative = inhibition) at 10uM” value is -20%.
For the molecule `CN(CCOc1ccccc1)CC(=O)Nc1ccc(Cl)c(S(=O)(=O)N(C)C)c1.O=C(O)C(=O)O`, the “hERG current change (%, negative = inhibition) at 10uM” value was -29.9%.
For the molecule `CN(Cc1ccccc1)C(=O)c1[nH]cnc1C(=O)NCc1ccccc1`, the “hERG current change (%, negative = inhibition) at 10uM” value is on record as -5.53%.
With `CC(CCN1CCN=C1Nc1ccccc1)c1ccccc1` (centres unmarked), the “hERG current change (%, negative = inhibition) at 10uM” value is given as -33.8%.
The figure for `Cc1cc(C)c2nc(NNC(=O)c3ccc(S(=O)(=O)N4CCCC(C)C4)cc3)sc2c1` (centres unmarked) is 6.67%.
As to `COc1cc(C(=O)NC(=S)Nc2cccc(-c3cc4ccccc4oc3=O)c2)cc(OC)c1OC`, the “hERG current change (%, negative = inhibition) at 10uM” value was found to be 14.8%.
Regarding `CC(=O)c1cc(F)ccc1OCC(=O)N1CCCc2ccccc21`, the “hERG current change (%, negative = inhibition) at 10uM” value is given as -4.15%.
As for `O=C(NCCC1=CCCCC1)c1cc2c(s1)CS(=O)(=O)C2`, the “hERG current change (%, negative = inhibition) at 10uM” value is -28.1%.
The figure for `CCS(=O)(=O)c1ccc(OC)c(N=Nc2ccc(O)c3ncccc23)c1` is 0.639%; for `COc1ccc(C)cc1S(=O)(=O)Nc1ccc(F)cc1` it is -1.24%; for `CCN(CCCNC(=O)CCCN1C(=O)COc2ccc(C)cc21)c1cccc(C)c1` it is -30%.
As for `Cc1ccnc(SCC(=O)N2CCc3ccccc3C2)n1`, the “hERG current change (%, negative = inhibition) at 10uM” value is given as 12.3%.
With `COc1ccc(C(=O)NC2c3ccccc3-c3ccccc32)cc1`, the “hERG current change (%, negative = inhibition) at 10uM” value turned out to be 30.3%.
Consider `Clc1ccc(Cn2ncc3c(N4CCCC4)ncnc32)cc1`, for which the “hERG current change (%, negative = inhibition) at 10uM” value was -56.7%.
Regarding `CC(=O)Oc1ccc2c(c1)Oc1cc(OC(C)=O)ccc1C21OC(=O)c2ccccc21`, the “hERG current change (%, negative = inhibition) at 10uM” value is reported as 12.6%.
As for `COc1cc(C)c(NC(=O)Cc2ccsc2)cc1OC`, the “hERG current change (%, negative = inhibition) at 10uM” value amounted to 29%.
Regarding `Cc1ccc(N2CCN(C(=O)CN3C(=O)c4ccccc4C3=O)CC2)cc1`, the “hERG current change (%, negative = inhibition) at 10uM” value is recorded as -15.9%.
`COc1cc2[nH]c(C(=O)N3CCN(C)CC3)cc2c(OC)c1OC`: the “hERG current change (%, negative = inhibition) at 10uM” value amounted to 17.3%.
`CCN(CC)CCCN=C1N[C@@H](c2ccccc2)C(C(=O)OC)=C(C)N1CC`: the “hERG current change (%, negative = inhibition) at 10uM” value worked out at 14.6%.
Consider `O=C(O)c1cccc(S(=O)(=O)N2CCC(Cc3ccccc3)CC2)c1`, for which the “hERG current change (%, negative = inhibition) at 10uM” value is reported as 15.7%.
For the molecule `C=CCc1c(O)c(CC)cc2c(C)cc(=O)oc12`, the “hERG current change (%, negative = inhibition) at 10uM” value was -0.0305%.
As to `CCOc1ccc(/C=N/N2C(C)CCCC2C)cc1` (centres unmarked), the “hERG current change (%, negative = inhibition) at 10uM” value is reported as -4.63%.
For the molecule `CCOC(=O)N1CCN(C(=O)c2ccc3c(=O)n(Cc4ccc(OC)cc4)c(=S)[nH]c3c2)CC1`, the “hERG current change (%, negative = inhibition) at 10uM” value is given as -28.9%.
The figure for `Cc1ccc2nc(SC(C)C(=O)N3CCCC3)[nH]c2c1` (centres unmarked) is 17.6%; for `CC(=O)NC(Cc1ccccc1)C(=O)NC1CCN(C(=O)c2cnccn2)CC1` (centres unmarked) it is -0.606%; for `CN1CCN(CCNC(=O)c2cn(Cc3ccccc3F)nn2)CC1` it is 4.59%.
The figure for `CCn1c(SCC(=O)NC2CCCCC2)nnc1-c1ccccn1` is -3.17%.
Consider `CCOC(=O)C1=C(CN2CCSCC2)NC(=O)NC1c1ccc2c(c1)OCO2` (centres unmarked), for which the “hERG current change (%, negative = inhibition) at 10uM” value was -15.3%.
As to `COc1ccc(CC2CC(=O)N(c3ccc(C)cc3)C2=O)cc1` (centres unmarked), the “hERG current change (%, negative = inhibition) at 10uM” value turned out to be 15.6%.
The figure for `COc1cc(OC)c(OC)cc1CN1CCN(Cc2ccc(C(F)(F)F)cc2)CC1` is -42.3%; for `CCS(=O)(=O)N1Cc2ccccc2CC1C(=O)Nc1ccccc1OC` (centres unmarked) it is -6.16%.
